In PubChem BioAssay AID504832 (National Center for Advancing Translational Sciences (NCATS), 2011):
Among all 310,000 compounds or so, about 18,000 (5.8%) were called active. This list was built around the results that the source calls inconclusive (neither active nor inactive); the mix of calls is not that of the screen. The call rests on the fitted dose curve; in most records, active means well fitted inhibition curve with a large enough effect; inconclusive means small, poorly fitted or top-dose-only effect, or another doubt; inactive means no such curve, though single readings can be large or run the other way. No potency is given beside an inconclusive call; the fits are too rough.

assay: Primary qHTS for delayed death inhibitors of the malarial parasite plastid, 48 hour incubation; settings: P. falciparum luciferase growth in erythrocytes; series mostly up to 28.7 µM
In short: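 Luciferase-expressing parasites in RBCs, 2% Hct / 0.1% parasitemia final; RPMI 1640 + 0.5% Albumax; 37 C, 5% CO2, one generation; luminescence read-out, lower signal = inhibition.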
Potency means the concentration at half of the fitted maximal effect; tags describe the fitted curve by direction and shape.

| Compound | Potency |
| --- | --- |
| CCN1C(=C(C#N)C#N)C=Cc2ccccc21 | inactive |
| Cc1ccc(C)c(Cn2nnc3c(=O)[nH]c(C4CCN(S(=O)(=O)c5ccc(S(=O)(=O)N(C)C)cc5)CC4)nc32)c1 | inconclusive [inhibitor, partial curve] |
| COc1ccc(NC(=O)CN(c2ccc(OC)c(Cl)c2)S(=O)(=O)c2ccccc2)c(OC)c1 | inconclusive [inhibitor, partial curve, poor fit] |
| CC1=NN(Cc2c(C)nn(Cc3ccccc3)c2C)C(C)(C)C1 | inactive |
| CCOC(=O)CCNC(=O)Nc1ccc2nc(C)n(Cc3ccc(Cl)cc3)c(=O)c2c1 | inactive |
| O=C(Cn1c(=S)[nH]c2ccccc21)c1ccccc1 | inactive |
| O=C(c1ccc(Cl)c(S(=O)(=O)N2CCc3ccccc3C2)c1)N1CCN(c2ccccc2)CC1 | inconclusive [inhibitor, single point] |
| COc1ccc(-c2cc(C(=O)NNC(=S)NC(=O)c3c(-c4ccccc4)noc3C)[nH]n2)cc1 | inconclusive [inhibitor, single point] |
| COc1ccccc1N1CCN(/N=C/c2cc(OC)c(OC(C)=O)c(OC)c2)CC1 | inactive |
| COC(=O)C1CCCCN1C(=O)CCc1nnc(CCc2c[nH]c3ccccc23)o1 (stereo unspecified) | inconclusive [inhibitor, partial curve, poor fit] |
| Cc1ccc(C(=O)NCCCc2ccccc2)c(Cl)c1 | inactive |
| O=C(Nc1ccc(Cl)cc1)N1CCC(c2nc(-c3ccc(F)cc3)no2)CC1 | inconclusive [inhibitor, single point] |
| Oc1ccccc1N=Cc1sc2ccccc2c1Cl | inconclusive [inhibitor, single point] |
| COc1ccc(-c2cn3c(C)c(C(=O)Nc4cccc(C)n4)sc3n2)cc1 | inconclusive [inhibitor, single point] |
| Cc1cc(/C=C2/NC(=O)NC2=O)c(C)n1C | inactive |
| O=C(Nc1ccc(N2CCN(C(=O)c3ccccc3)CC2)cc1)c1ccc([N+](=O)[O-])o1 | inconclusive [inhibitor, partial curve, poor fit] |
| Cc1ccc(C)c(OCCNc2ncccc2[N+](=O)[O-])c1 | inactive |
| CCOc1ccc(OCCN2C(=O)c3ccccc3C2=O)cc1 | inconclusive [inhibitor, partial curve] |
| CCOc1ccc(N(C(C)C(=O)N/N=C(\C)c2cccc(NC(=O)c3ccccc3)c2)S(C)(=O)=O)cc1 (stereo unspecified) | inconclusive [inhibitor, full curve, poor fit] |
| Cc1sc2ncn(CC(=O)NCCCN3CC(C)CC(C)C3)c(=O)c2c1S(=O)(=O)N1CC(C)CC(C)C1 (stereo unspecified) | inactive |
| CC(Sc1ccc(S(=O)(=O)N2CCOCC2)cn1)C(=O)Nc1ccc(Cl)cc1Cl (stereo unspecified) | active: 11.7 µM |
| O=C(N=Nc1c(O)[nH]c(=O)[nH]c1=O)C1COc2ccccc2O1 (stereo unspecified) | inconclusive [inhibitor, single point] |
| COC(=O)c1ccc(C(=O)OC)c(NC(=O)COC(=O)CCOc2ccc(C)cc2)c1 | inactive |
| Cc1ccccc1Cn1nnc(C(=O)Nc2ccc3c(c2)OCCO3)c1N | inactive |

| Compound | Potency |
| --- | --- |
| Cn1c(CCNC(=O)c2cccs2)nnc1SCC(=O)Nc1nc(-c2ccccc2)cs1 | active: 7.38 µM |
| N=c1c2c(-c3ccccc3)c(-c3ccccc3)n(Cc3ccco3)c2ncn1CCCn1ccnc1 | active: 1.85 µM |
| COc1ccc(-c2cc(-c3nnc(COC(=O)C4CC4C)o3)c3ccccc3n2)cc1OC (stereo unspecified) | inconclusive [inhibitor, partial curve, poor fit] |
| Cc1ccc(NC(=O)c2cccc3c2C(=O)N(C2CCCCC2)C3)c(C)c1 | inconclusive [inhibitor, single point] |
| Cc1ccc2c(CC(=O)N3CCN(S(=O)(=O)c4cccs4)CC3)coc2c1 | inactive |
| CC(C)C(=O)N1N=C(c2ccc(NS(C)(=O)=O)cc2)CC1c1cccs1 (stereo unspecified) | inactive |
| O=C(CN1CCN(c2ccccn2)CC1)Nc1nc2ccccc2s1 | inconclusive [inhibitor, single point] |
| CCN(Cc1ccncc1)C(=O)c1ccccc1NS(=O)(=O)c1ccc(F)cc1 | inactive |
| Cc1oc(-c2ccccc2F)nc1CN1CCC(C(=O)NC2CC2)CC1 | inconclusive [inhibitor, full curve, poor fit] |
| CCNC(C(=O)c1c[nH]c2c(CC)cccc12)c1ccccc1 (stereo unspecified) | inconclusive [inhibitor, partial curve] |
| CCNC(=O)CCSc1nnc(-c2ccco2)o1 | inactive |
| Brc1ccc2c(c1)OCCOCCOCCOCCOCCOCCO2 | inactive |
| CCOc1ccc(N(CC(=O)NCc2ccco2)C(=O)CCC(=O)Nc2ccccn2)cc1 | inconclusive [inhibitor, single point] |
| Cn1c(N)c(C(=O)CSc2ncn[nH]2)c(=O)n(C)c1=O | inactive |
| CC1=C(C(=O)OC(C)C)C(c2cccc([N+](=O)[O-])c2)C(C(=O)OC2CN(C(c3ccccc3)c3ccccc3)C2)=C(N)N1 (stereo unspecified) | active: 7.57 µM |
| CCN(C(=O)Cn1c(=O)oc2ccccc21)c1ccc(C)c(C)c1 | inconclusive [inhibitor, full curve, poor fit] |
| COCCCNC(=O)c1ccccc1N(Cc1ccccc1)S(=O)(=O)c1ccccc1 | inconclusive [inhibitor, partial curve, poor fit] |
| Cc1ccc(S(=O)(=O)N2CCC(=O)N(C(COCc3ccc(Cl)cc3)Cc3ccccc3)CC2)cc1 (stereo unspecified) | active: 11.7 µM |
| Cc1cccc(N2CCN(C(=O)COc3ccc4c(C)cc(=O)oc4c3C)CC2)c1C | active: 11.7 µM |
| Cc1nc(SCC(=O)N2CCc3ccccc3C2)c2c(C)c(C)sc2n1 | inconclusive [inhibitor, single point] |
| Nc1cc(=O)nc(SCC(=O)N2CCN(c3ccccc3)CC2)n1-c1ccc(F)cc1 | inconclusive [inhibitor, single point] |
| CCn1c(NC(=S)Nc2ccccc2)nc2ccccc21 | inconclusive [inhibitor, partial curve] |
| Cc1ccc(C)c(NC(NC(=O)c2cccnc2)C(Cl)(Cl)Cl)c1 (stereo unspecified) | inconclusive [inhibitor, single point] |
| Cc1cccc(N2CCN(C(=O)c3ccccc3SCC(=O)N3CCCC3)CC2)c1C | inconclusive [inhibitor, single point] |

| Compound | Potency |
| --- | --- |
| CN(C)C(CNC(=O)c1ccc(C2SCCS2)cc1)c1ccccc1 (stereo unspecified) | inconclusive [inhibitor, single point] |
| Cc1ccc(NC(=O)N2Cc3ccccc3CC2C(=O)NC(C)(C)C)cc1 (stereo unspecified) | inactive |
| CCOC(=O)/C(C#N)=C/c1c(N2CCN(Cc3ccc4c(c3)OCO4)CC2)nc2c(C)cccn2c1=O | active: 3.7 µM |
| CCOc1ccc(N2C(=O)CC(N3CCOCC3)C2=O)cc1 (stereo unspecified) | inactive |
| O=C(Cc1ccc(Br)cc1)N/N=C/c1cccnc1 | inactive |
| O=C(CCCC(=O)N(CC(=O)NC1CCCCC1)Cc1ccco1)Nc1ccccn1 | inconclusive [inhibitor, full curve] |
| Fc1ccc(CNc2nc(-c3cccnc3)nc3ccccc23)cc1 | active: 11.7 µM |
| Clc1ccc(-c2cc3ccccc3nc2N2CCCC2)cc1 | inconclusive [inhibitor, single point] |
| c1ccc(Cc2nnc3sc(-c4cccs4)nn23)cc1 | inconclusive [inhibitor, full curve, poor fit] |
| Cc1[nH]c2ccc(C(=O)OC(C)C(=O)N(C)c3ccccc3)cc2c1C (stereo unspecified) | inconclusive [inhibitor, single point] |
| CNC(=O)C(=O)NCCCN1CCOCC1 | inactive |
| N#Cc1nc(-c2ccc(OCc3ccccc3)cc2)oc1N1CCC(C(N)=O)CC1 | inconclusive [inhibitor, partial curve] |
| S=C1SCN(Cc2ccccc2)CN1Cc1ccccc1 | inconclusive [inhibitor, partial curve, poor fit] |
| Cc1cccc(NC(=O)c2ccc(-n3cccn3)c([N+](=O)[O-])c2)c1 | inactive |
| COc1ccc(Cc2nnc(Nc3ccccc3)s2)cc1Br | inconclusive [inhibitor, partial curve] |
| COc1ccc(/C=C/c2cc(-c3ccc(C)cc3)o[n+]2C)cc1 | inconclusive [inhibitor, full curve, poor fit] |
| O=C(N1CCCCCC1)n1c(Cc2ccccc2)nc2ccccc21 | inconclusive [inhibitor, single point] |
| COc1cc(C(N)=O)ccc1OCc1ccccc1 | inactive |
| Cc1occc1-c1nnc(SCC(=O)N2CCCc3ccccc32)n1Cc1ccco1 | inconclusive [inhibitor, single point] |
| CCOC(=O)C1=C(COC(=O)Cc2ccc(OC)c(OC)c2)NC(=O)NC1C (stereo unspecified) | inconclusive [inhibitor, single point] |
| CCc1c(C)nc2ncnn2c1Nc1ccc(C)cc1 | inactive |
| Cc1ccc(-c2nc(SCC(=O)N(C)C3CCS(=O)(=O)C3)[nH]c2-c2ccc(C)cc2)cc1 (stereo unspecified) | inconclusive [inhibitor, single point] |
| CCOc1ccc2c(c1)OC(c1ccc(OC)cc1)(C(F)(F)F)NC2=O (stereo unspecified) | inconclusive [inhibitor, partial curve] |
